Experimental data: the supplement of paper PMC5499739
In all, about 16,000 sequences were measured (“Z-score”: median about -0.37, highest 2% from about 3.1 on). This is one part of the list.

Test system: RBM10 RRM1-ZnF-RRM2 (GST-tagged construct)
Test: RNAcompete 7-mer binding Z-score; higher = stronger binding preference
Summary of the method: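 GST-tagged RBM10 constructs (20 pmol) were mixed with a designed pool of 241 399 RNAs up to 41 nt (1.5 nmol), transcribed from microarray-derived DNA templates. Mixing was in 1 ml Hepes pH 7.8 buffer with KCl, NaCl, glycerol, DTT, BSA and glutathione Sepharose beads. Binding ran 30 min at 4°C, followed by four 2-min washes at 4°C, and bound RNA was identified by microarray hybridisation. Each heptamer motif received a one-sided Z-score for enrichment across probes containing it.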

Row | Sequence | RNAcompete 7-mer binding Z-score
1 | AAGUUAA | 0.192
2 | AUGUCAU | -0.497
3 | CGGCGUG | 1.06
4 | CCUCUCA | -0.854
5 | UGGGCAC | 1.77
6 | CCUAUAC | -0.744
7 | ACGUAUA | -0.198
8 | UCUAAGC | -0.774
9 | GGCCACC | -0.533
10 | ACCAUGG | 0.61
11 | GUGGAUA | 2.31
12 | AUAUCGA | -0.173
13 | CAUGUCU | -0.774
14 | CGUGUUA | -0.475
15 | AUACACA | -0.187
16 | UUGGCGA | 0.771
17 | GGGGUCG | 2.56
18 | CGUGUAC | -0.235
19 | GAGGGUA | 4.4
20 | UAAUGGA | 1.64
21 | GUACCUU | -0.602
22 | CGGGUGC | 1.94
23 | UGCCCUC | -0.81

Row | Sequence | RNAcompete 7-mer binding Z-score
24 | CGCCUCU | -1
25 | CUACCCG | -0.799
26 | GAUGAUG | 1.36
27 | AACUAUU | -0.694
28 | GAUCUCU | -0.846
29 | ACACUAC | -0.653
30 | GAUUAAU | -0.111
31 | CCCCAAG | -0.464
32 | UCUAGAA | -0.617
33 | CUAUGCG | -0.566
34 | GAAUACU | -0.493
35 | AUAGGUA | 2.29
36 | GGAGCAU | 1.58
37 | ACUUACA | -0.668
38 | UAAUCCG | -0.406
39 | AGCCUGU | -0.719
40 | AGCGAAG | 1.07
41 | CGCGUCC | -0.657
42 | CAUUGAG | -0.0743
43 | CAUAGUG | 0.206
44 | CGGGUUA | 1.75
45 | GCGUCCC | -0.471
46 | AUUCGAG | -0.114

Row | Sequence | RNAcompete 7-mer binding Z-score
47 | GACGAGC | 0.0932
48 | AGUCACU | -0.388
49 | GCGCCAA | -0.464
50 | UACAGCU | -0.537
51 | ACGUUUU | -0.774
52 | GGAUUAA | 0.789
53 | GGCAGUA | 1.57
54 | ACUGGCA | -0.191
55 | AAAGGCG | 2.16
56 | UUCCGGU | -0.431
57 | GUGGCAC | 1.05
58 | GACUGCA | -0.46
59 | AAUGGGU | 4.1
60 | ACGAUGC | -0.271
61 | ACCGGCC | -0.69
62 | UCCGGGU | 0.731
63 | CCGCUCG | -0.526
64 | UGUUAGG | 0.607
65 | ACCUAAG | -0.675
66 | GUAAAGG | 3.36
67 | UCUCAAC | -0.774
68 | AGCCAAC | -0.315
69 | ACGAGAU | 0.0204

Row | Sequence | RNAcompete 7-mer binding Z-score
70 | ACGAUAA | 0.195
71 | UUUAAAA | -0.595
72 | UAUCAAA | -0.358
73 | AUUAGAU | -0.202
74 | GAAUUAU | -0.195
75 | AGUCCGC | -0.715
76 | GCACGUG | 0.21
77 | GUAACUG | 0.155
78 | CGCGGGU | 1.81
79 | AGGUCUU | -0.402
80 | GACCAUA | -0.675
81 | CUUCCUG | -0.857
82 | GGUUAAC | 1.33
83 | ACGAGGG | 3.71
84 | CGGCCAC | -0.326
85 | UAUGGGC | 1.64
86 | UUCGCCU | -0.927
87 | ACACAAU | -0.409
88 | GUGUACU | -0.227
89 | UCCAACA | -0.584
90 | GAACGAG | 1.28
91 | CUAGACU | -0.723
